Each structure is given as a SMILES string. Over roughly 2,900 compounds, “IRF Lucia reporter activity, fold change vs agonist alone” has its median near 0.9; the highest 2% begin near 2.8. The list shows a part of the results.

The subject of test [1] is RAW-Dual. Briefly: IRF Lucia reporter activity, fold change vs agonist alone; higher = enhanced IRF activity. The note with it: cytotoxicity flag (confluency mask): not cytotoxic, agonist: MPLA (TLR4) […]. The procedure, abridged:
(§1)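 After 50 nL of library stock was delivered by pin tool to RAW-Dual macrophages (50,000 cells/well, DMEM, 384-well plates), a PRR agonist was added 1 h later and the plates were kept at 37 °C, 5% CO2. Twenty hours later, IRF was read from supernatant by QuantiLuc luminescence and NF-κB by QuantiBlue absorbance at 620 nm. Reporter activity is stated as fold change over agonist-alone wells. Wells with IncuCyte confluency under 70% of agonist controls in both mask sets were counted as cytotoxic.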

In test [2] the test system is RAW-Dual. Put plainly: IRF Lucia reporter activity, fold change vs agonist alone; cytotoxicity flag (confluency mask): not cytotoxic; higher = enhanced IRF activity. A digest of the protocol:
as §1

Test [3] relates to RAW-Dual. Briefly: IRF Lucia reporter activity, fold change vs agonist alone; cytotoxicity flag (confluency mask): cytotoxic (confluency <70% of control); higher = enhanced IRF activity. The procedure, abridged: as §1
[4] abbreviates: library stock concentration (final ~1000-fold dilution): 10 mM.
Setting [5] is: agonist: 3'3'-cGAMP (STING) 10 ug/mL.

On to `CC[N+](CC)(CC)CC`, for which the “IRF Lucia reporter activity” value with RAW-Dual [1] (setting [4]) amounted to 0.993.

On to `CC[N+](CC)(CC)CC` (library stock concentration (final ~1000-fold dilution): 10 mM), for which the “IRF Lucia reporter activity” value in the test with RAW-Dual [2] (setting [5]) stood at 1.01; in the test on RAW-Dual [2] (agonist: LPS (TLR4) 0.1 ug/mL), 0.826.

Consider `CCN(CC)Cc1cc(Nc2ccnc3cc(Cl)ccc23)ccc1O.Cl.Cl.O.O`, for which the “IRF Lucia reporter activity” value with RAW-Dual [1] (setting [4]) was 1.21.

As for `CCN(CC)Cc1cc(Nc2ccnc3cc(Cl)ccc23)ccc1O.Cl.Cl.O.O` (library stock concentration (final ~1000-fold dilution): 10 mM), the “IRF Lucia reporter activity” value worked out at 0.802 in the test on RAW-Dual [2] (setting [5]) and 1.25 in the test with RAW-Dual [2] (agonist: LPS (TLR4) 0.1 ug/mL).

Regarding `Cl.OC(CCCN1CCCCC1)(c1ccccc1)c1ccccc1`, the “IRF Lucia reporter activity” value in the test with RAW-Dual [1] (setting [4]) was determined as 1.03.

In the case of `Cl.OC(CCCN1CCCCC1)(c1ccccc1)c1ccccc1` (library stock concentration (final ~1000-fold dilution): 10 mM), the “IRF Lucia reporter activity” value in the test on RAW-Dual [2] (setting [5]) was determined as 1.15; in the test with RAW-Dual [2] (agonist: LPS (TLR4) 0.1 ug/mL), 1.26.

As for `NC(CSCCCO)C(=O)O` (centres undefined) (library stock concentration (final ~1000-fold dilution): 10 mM water), the “IRF Lucia reporter activity” value was found to be 0.986 in the test on RAW-Dual [2] (setting [5]) and 0.871 in the test on RAW-Dual [2] (agonist: LPS (TLR4) 0.1 ug/mL).

With `NC(CSCCCO)C(=O)O` (centres undefined), the “IRF Lucia reporter activity” value in the test with RAW-Dual [1] (library stock concentration (final ~1000-fold dilution): 10 mM water) came to 1.32.

Turning to `CCC(c1ccc(O)cc1)C(CC)c1ccc(O)cc1` (centres undefined), in the test with RAW-Dual [1] (setting [4]), the “IRF Lucia reporter activity” value stood at 1.14.

Take `CCC(c1ccc(O)cc1)C(CC)c1ccc(O)cc1` (centres undefined) (library stock concentration (final ~1000-fold dilution): 10 mM): the figures for the “IRF Lucia reporter activity” value in the test with RAW-Dual [2] (setting [5]) and in the test on RAW-Dual [2] (agonist: LPS (TLR4) 0.1 ug/mL) were 1.07 and 1.01, respectively.

Turning to `Cc1cnc(Nc2ccc(N3CCN(C)CC3)cc2)nc1Nc1cccc(S(=O)(=O)NC(C)(C)C)c1`, the “IRF Lucia reporter activity” value in the test with RAW-Dual [1] (setting [4]) was 0.993.

With `Cc1cnc(Nc2ccc(N3CCN(C)CC3)cc2)nc1Nc1cccc(S(=O)(=O)NC(C)(C)C)c1` (library stock concentration (final ~1000-fold dilution): 10 mM), the “IRF Lucia reporter activity” value in the test with RAW-Dual [2] (setting [5]) came out at 0.996; in the test on RAW-Dual [2] (agonist: LPS (TLR4) 0.1 ug/mL), 0.0609.

Consider `CC(C)N(CCC(=O)c1ccc2ccccc2c1)Cc1ccccc1.Cl` (library stock concentration (final ~1000-fold dilution): 10 mM), for which the “IRF Lucia reporter activity” value in the test with RAW-Dual [3] (setting [5]) was 0.102; in the test with RAW-Dual [3] (agonist: LPS (TLR4) 0.1 ug/mL) it was 0.211.

Consider `CC(C)CCN1c2nc(Nc3cc(F)c(O)c(F)c3)ncc2N(C)C(=O)C1C` (centres undefined), for which the “IRF Lucia reporter activity” value in the test on RAW-Dual [1] (setting [4]) was 0.111.

Take `CC(C)CCN1c2nc(Nc3cc(F)c(O)c(F)c3)ncc2N(C)C(=O)C1C` (centres undefined) (library stock concentration (final ~1000-fold dilution): 10 mM): the “IRF Lucia reporter activity” value in the test with RAW-Dual [2] (setting [5]) turned out to be 0.0771; in the test on RAW-Dual [2] (agonist: LPS (TLR4) 0.1 ug/mL), 0.0847.

For the compound `O=C1NC(=O)/C(=C/c2ccc(-c3ccc(F)cc3O)o2)S1` (library stock concentration (final ~1000-fold dilution): 10 mM), the “IRF Lucia reporter activity” value in the test with RAW-Dual [2] (setting [5]) was determined as 0.758; with RAW-Dual [2] (agonist: LPS (TLR4) 0.1 ug/mL) it was 1.6.

With `O=C1NC(=O)/C(=C/c2ccc(-c3ccc(F)cc3O)o2)S1`, the “IRF Lucia reporter activity” value in the test on RAW-Dual [1] (setting [4]) worked out at 1.51.

As to `CCCCCCCCCCCCCCCCCC(=O)O`, in the test on RAW-Dual [1] (setting [4]), the “IRF Lucia reporter activity” value worked out at 0.969.

For `CCCCCCCCCCCCCCCCCC(=O)O` (library stock concentration (final ~1000-fold dilution): 10 mM), the results for the “IRF Lucia reporter activity” value with RAW-Dual [2] (setting [5]) and with RAW-Dual [2] (agonist: LPS (TLR4) 0.1 ug/mL) were 0.975 and 1.19, respectively.

For the origin of these results see the supplement of paper PMC10037445.
